From PubChem BioAssay AID1345082 (National Center for Advancing Translational Sciences (NCATS), 2018)
The whole screen tested about 94,000 compounds, of which about 4,000 (4.3%) were called active. The inconclusive results got no clear call from the source; some entries with a clear call stand among them for comparison. Calls follow the shape of the dose curve; as a rule, active = well fitted inhibition curve with a large enough effect; inconclusive = small, poorly fitted or top-dose-only effect; inactive = no such curve, though single readings can be large or run the other way. Where the call is inconclusive, the potency comes from a doubtful curve fit.

Experiment: Cytotoxic Profiling in NIH 3T3 Cell Line of Diverse Libraries Using Quantitative High-Throughput Screening; also: nearly all actives have a fitted effect of over 55% in size
Settings: NIH 3T3 viability, CellTiter-Glo ATP luminescence, 48-72 h; series mostly up to 96.7 µM
Method in brief: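 Luminescent ATP readout (CellTiter-Glo, 10 min RT) after 48 or 72 hr compound exposure of NIH 3T3 cells seeded at 400 cells/well in 1536-well format; quantitative HTS.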
Potency is read from the fitted curve at half-maximal effect; tags tell the direction and shape of the fitted curve.

| SMILES | Potency |
| --- | --- |
| O=C(c1n[nH]c2ccccc12)N1CC2CC(C1)[C@H]1CCCC(=O)N1C2 (stereo partly drawn) | inactive |
| CC(=O)NC1(C)CCN(Cc2cnc(-c3cccc(C(F)(F)F)c3)s2)CC1 | inconclusive: 50.1 µM [inhibitor, full curve, poor fit] |
| COC(=O)C1=C(C)N(Cc2cccc(F)c2)C(=O)CC1c1ccccc1Cl (stereo not drawn) | inconclusive: 70.8 µM [inhibitor, partial curve, poor fit] |
| Cn1ncc2c(C(=O)NCc3ccc(F)cc3)cc(-c3cccc(F)c3)nc21 | inconclusive: 12.6 µM [inhibitor, full curve, poor fit] |
| Cc1nn2cc(CCNC(=O)C3NCCc4[nH]cnc43)nc2s1 (stereo not drawn) | inactive |
| Cc1noc(C)c1S(=O)(=O)N1CCC2(CC1)CN(c1ccccc1)C2=O | inactive |
| COc1ccc(CC(=O)N2CCC[C@H]2c2nc(-c3ccccc3Cl)no2)cc1 | inconclusive: 44.7 µM [inhibitor, partial curve, poor fit] |
| CCc1noc(-c2ccn3c(CNC(=O)c4ccc(N(CC)CC)cc4)nnc3c2)n1 | inconclusive: 5.01 µM [inhibitor, partial curve, poor fit] |
| COC1CN(c2cccc(F)c2)C12CCN(C(=O)C1(c3ccccc3)CC1)CC2 (stereo not drawn) | inconclusive: 22.4 µM [inhibitor, full curve] |
| COc1ccccc1CC(=O)N1CCCc2ncc(C(=O)N(C)Cc3ccccc3)cc21 | inconclusive: 8.91 µM [inhibitor, full curve] |
| CCN(Cc1cccc2cnccc12)CC1CCCN(CCc2cccc(F)c2)C1 (stereo not drawn) | active: 39.8 µM |
| CCN1C(=O)C2CC3(CCN(C(=O)c4cc(C)n(CCOC)c4C)CC3)CN2C1=O (stereo not drawn) | inactive |
| O=C1c2cc(N3CCOCC3)nc(-c3cccnc3)c2CN1c1ccccc1 | inconclusive: 3.55 µM [inhibitor, full curve, poor fit] |
| O=C(CN1CC2CC(C1)[C@H]1CCCC(=O)N1C2)N1CCN(c2ccc(Cl)cc2)CC1 (stereo partly drawn) | inactive |
| c1cc2nnc(C3CCC3)n2nc1N1CCOCC1 | inconclusive: 44.7 µM [inhibitor, partial curve, poor fit] |
| CN(C)CCNC(=O)C(C)(C)Oc1nn(CC2CCOCC2)c2ccccc12 | inconclusive: 100 µM [inhibitor, partial curve, poor fit] |
| CCOCC(=O)N1c2ccccc2CC1c1noc(C(C)C)n1 (stereo not drawn) | inconclusive: 44.7 µM [inhibitor, partial curve, poor fit] |
| COc1cccc(CCC(=O)N2CCCN(c3cc(-c4ccc(C)c(C)c4)[nH]n3)CC2)c1 | inconclusive: 44.7 µM [inhibitor, partial curve, poor fit] |
| O=C(NCc1ccccc1Cl)c1ccc(CN2C(=O)NC3(CCOCC3)C2=O)cc1 | inactive |
| CCc1ccc(N2CC(c3noc(Cc4ccccc4F)n3)CC2=O)cc1 (stereo not drawn) | inconclusive: 44.7 µM [inhibitor, partial curve, poor fit] |

| SMILES | Potency |
| --- | --- |
| CCN1CCN(c2nc3c(s2)CN(C(=O)Cc2cccnc2)CC3)CC1 | inconclusive: 44.7 µM [inhibitor, partial curve, poor fit] |
| Cn1nccc1OCc1cn2c(=O)n(C)cc(-c3cccc(C(F)(F)F)c3)c2n1 | inconclusive: 79.4 µM [inhibitor, partial curve] |
| COc1ccc2c(c1)OC[C@@H]1CN(CC(C)(C)O)C(=O)CCN(C(=O)Cc3ccccc3)[C@H]21 | inconclusive: 50.1 µM [inhibitor, partial curve, poor fit] |
| COc1ccccc1C(=O)N1CCCN(Cc2ccc3c(c2)OCO3)c2ccccc21 | inconclusive: 39.8 µM [inhibitor, partial curve] |
| CCn1ccc(C(=O)N2CCC(c3nn(C)c(=O)n3CCc3ccccc3)CC2)n1 | inconclusive: 50.1 µM [inhibitor, partial curve, poor fit] |
| Cc1noc2c(-c3cccnc3NC3CCC(O)CC3)cc(-c3ccccc3)nc12 (stereo not drawn) | inconclusive: 79.4 µM [inhibitor, partial curve] |
| Cc1ccc(S(=O)(=O)N[C@H]2CO[C@H]3[C@@H]2OC[C@@H]3n2nnnc2Oc2ccc(-n3cncn3)cc2)cc1 | inconclusive: 10 µM [inhibitor, partial curve, poor fit] |
| CC(C)n1nc(OC(C)(C)C(=O)NCCc2cccnc2)c2cc(CN3CCOCC3)ccc21 | inconclusive: 50.1 µM [inhibitor, partial curve, poor fit] |
| O=C(Cn1ccc(=O)[nH]c1=O)N1CCCC(c2[nH]ncc2-c2ccc(F)cc2)C1 (stereo not drawn) | inconclusive: 44.7 µM [inhibitor, partial curve, poor fit] |
| O=C1CCN(CC(O)Cc2ccccc2)c2ccccc2CN1Cc1ccccc1 (stereo not drawn) | inconclusive: 44.7 µM [inhibitor, partial curve, poor fit] |
| COc1ccc(S(=O)(=O)N2CCc3c(C(=O)NCc4ccccn4)cccc32)cc1 | inconclusive: 31.6 µM [inhibitor, full curve, poor fit] |
| CN1C[C@H](O)C[C@H]1c1nnc2n1CCN(C(=O)Cc1ccccc1)CC2 | inactive |
| CNC(=O)C1(N2CCC[C@H]2C(=O)N2CCCCCC2)COC1 | inactive |
| COc1ccc(C(=O)N2CCC[C@H](n3c(=O)n(CC4CC4)c4cccnc43)C2)cc1F | inconclusive: 17.8 µM [inhibitor, full curve, poor fit] |
| O=C(NCC(F)(F)F)c1cc(-c2cc(Cl)cc(Cl)c2)c2cccn2n1 | inconclusive: 44.7 µM [inhibitor, partial curve, poor fit] |
| Cc1noc(C)c1CN1CCCC(COc2ccccc2C(=O)N2CCOCC2)C1 (stereo not drawn) | inactive |
| Oc1ccc(-c2nc(C3CC3)nc3c2CCN(Cc2cccnc2)CC3)cc1 | inconclusive: 50.1 µM [inhibitor, partial curve, poor fit] |
| Cn1cnc(C(=O)N2C[C@@H](COc3ccccc3)[C@H](C(N)=O)C2)c1 | inconclusive: 70.8 µM [inhibitor, single point] |
| CN(C)c1cccc(-c2cc(C(=O)NCc3cccnc3)c3c(c2)ncn3C)c1 | inconclusive: 89.1 µM [inhibitor, partial curve, poor fit] |
| CN(Cc1ccccc1)C(=O)C[C@@H]1CCNC[C@@H]1Cc1cc(-c2ccc(C(C)(C)C)cc2)on1 | inconclusive: 20 µM [inhibitor, full curve, poor fit] |

| SMILES | Potency |
| --- | --- |
| CC(C)NC(=O)C[C@@H]1c2nc(NC(=O)c3ccc(C(C)(C)C)cc3)sc2C[C@@H]2[C@](C)(CO)[C@H](O)CC[C@]21C | active: 50.1 µM |
| CCOc1cccc(CNC(=O)c2cc3n(n2)CC(c2ccc(Cl)cc2)OC3)c1 (stereo not drawn) | inconclusive: 50.1 µM [inhibitor, partial curve, poor fit] |
| Cc1ccc(OCc2nc(C3CCCCN3C(=O)NC3CCCCC3)no2)cc1 (stereo not drawn) | inconclusive: 50.1 µM [inhibitor, partial curve, poor fit] |
| OCC1CN(Cc2ccc(F)cc2Cl)CC12CCNCC2 (stereo not drawn) | inconclusive: 44.7 µM [inhibitor, partial curve] |
| Cn1nccc1C(O)c1cc2n(n1)CCN(C/C=C/c1ccccc1)C2 (stereo not drawn) | inconclusive: 89.1 µM [inhibitor, single point] |
| Cc1ccc(-c2ccccc2CN2CCN(C(=O)c3ccc(Cl)nc3)CC2)cc1Cl | active: 35.5 µM |
| COc1ccc(CN2CCCC3(CC(c4ccccc4)=NO3)C2)cc1 (stereo not drawn) | inactive |
| COc1ccc(-c2cc(C[C@@H]3CC[C@H](O)[C@@H](CN(Cc4cccc(OC)c4)Cc4cccc(OC)c4)O3)no2)cc1 | inconclusive: 39.8 µM [inhibitor, partial curve, poor fit] |
| Cc1ccc(F)c(OCC(=O)c2ccc3c(c2)N(CCCC(=O)NC2CC2)C(=O)CO3)c1 | inconclusive: 56.2 µM [inhibitor, partial curve, poor fit] |
| O=[S+]([O-])(NC1CCN(c2ccc3nnc(-c4ccccc4)n3n2)CC1)c1ccccc1 | inconclusive: 50.1 µM [inhibitor, partial curve, poor fit] |
| CCOc1ccccc1NC(=O)N1CCC(Cc2nc(-c3ccccc3)n[nH]2)C1 (stereo not drawn) | inconclusive: 44.7 µM [inhibitor, partial curve, poor fit] |
| CCCCCNC(=O)Cc1csc2nc(C)c(-c3cc(C)n(-c4ccc(F)cc4)n3)c(=O)n12 | inconclusive: 44.7 µM [inhibitor, partial curve, poor fit] |
| CSc1ccc(-c2nc(CN3CCOC(CCO)C3)c(C)o2)cc1 (stereo not drawn) | inconclusive: 31.6 µM [inhibitor, full curve] |
| O=C1c2c(nc(CNc3cccc(F)c3)n2Cc2ccccc2)NCCN1CCN1CCCCC1 | inconclusive: 70.8 µM [inhibitor, single point] |
| COCCCNC(=O)c1ccc2nc(-c3cccc(C)n3)oc2c1 | inconclusive: 79.4 µM [inhibitor, partial curve, poor fit] |
| Cc1ccc(-c2cc3c(ccn3CC3CCN([S+](C)(=O)[O-])CC3)c(N3CCOCC3)n2)cn1 | inconclusive: 12.6 µM [inhibitor, partial curve, poor fit] |
| Cc1ccc(Nc2ccnc(N3CCCC3C(=O)N3CCCCC3)n2)cc1 (stereo not drawn) | inconclusive: 70.8 µM [inhibitor, partial curve, poor fit] |
| Fc1ccc(OC2CN(Cc3cccc4ccccc34)C2)cc1F | inconclusive: 79.4 µM [inhibitor, single point] |
